About 800 (1.6%) of roughly 50,000 compounds showed an effect of 50% or more. Some of the results follow.

The test deals with Bcl-2-like protein 10 (Homo sapiens) (UniProt Q9HD36). The test is described as follows: TR3 peptide-Bcl-B binding displacers, biochemical primary FP assay, phenotype converters (AID 1240).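 Note: 0% = Bcl-B with tracer peptide and DMSO and 100% = tracer peptide lacking Bcl-B.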 Particulars: GST-Bcl-B / FITC-TR3 peptide fluorescence polarization; stronger effect = higher value; compound at 3.75 mg/L. (Fluorescence polarisation rises when a labelled molecule tumbles more slowly, as on binding a larger partner.)
UniProt Q9HD36, sequence (Q9HD36 whole entry, looked up): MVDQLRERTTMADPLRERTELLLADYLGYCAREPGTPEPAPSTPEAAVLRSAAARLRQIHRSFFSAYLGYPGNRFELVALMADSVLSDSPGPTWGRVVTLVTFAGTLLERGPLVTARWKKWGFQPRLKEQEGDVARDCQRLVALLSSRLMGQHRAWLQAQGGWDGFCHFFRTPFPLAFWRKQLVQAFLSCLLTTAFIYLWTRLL
Turning to `Fc1cccc(CN2CCN(Cc3ccco3)CC2)c1`, the displacement was -1%.
As to `CN1C(=O)C(=Cc2ccc(O)c(Cl)c2)C(=O)N(C)C1=O`, the displacement was 4.4%.
With `Nc1ccc2nc(SCc3ccc(Br)cc3)sc2c1` the figure was -3.8%.
As for `O=c1c2ccccc2nc(/C=C\c2ccccc2O)n1-c1cccc2ccccc12`, the figure is -6.6%; as for `O=S(=O)(Cc1ccccc1)Nc1ccccn1`, 2.2%; as for `O=C(c1ccncc1)N1N=C(c2ccc(Cl)cc2)CC1(O)C(F)(F)F` (centres undefined), 3.5%.
As for `COc1ccc(NC(=O)c2ccncc2)cc1Cl`, the displacement amounted to 1.2%.
Take `COC(=O)c1c(NC(=O)c2sc3cc(C)ccc3c2Cl)sc2c1CCCC2`: the displacement is -0.6%.
With `CCC(C)c1ccc(OCCOc2ccc(C=C3C(=O)NC(=S)NC3=O)cc2OC)cc1` (centres undefined) the figure was 10.2%; with `CC1=NN(c2ccc(S(N)(=O)=O)cc2)C(=O)/C1=C\c1ccc(OCc2ccccc2)cc1`, 13%; with `O=C1N/C(=N/N=C/c2ccc3c(c2)OCO3)SC1c1ccccc1` (centres undefined), 10.9%.
As for `O=c1c2c3c(sc2nc(SCc2ccccc2)n1Cc1ccccc1)CCC3`, the figure is -0.7%; as for `O=C(O)c1sc2ccccc2c1Cl`, 13.5%.
With `CC(=O)Nc1ccccc1C(=O)N1CC(C)OC(C)C1` (centres undefined) the figure was -7.2%; with `O=C1NC(=S)NC(=O)C1=Cc1ccccc1OCc1ccc([N+](=O)[O-])cc1`, 12.7%.
Turning to `Cc1ccc(S(=O)(=O)N(CC(O)Cn2c3ccccc3c3ccccc32)CC2CCCO2)cc1` (centres undefined), the displacement was 0.4%.
In the case of `O=S(=O)(Nc1nc2ccccc2nc1NCc1ccccc1)c1ccc(Cl)cc1`, the displacement was found to be 10.1%.
With `C=CCN1C(=O)/C(=C\c2ccc(OCc3ccccc3F)c(OC)c2)C(=O)NC1=S` the figure was -0.9%; with `COc1ccc(CN2CCN(C3CCCCCC3)CC2)c(OC)c1OC`, -14.3%; with `CCOC(=O)C1=C(C)N=C2SCC(=O)N2C1c1ccc2c(c1)OCO2` (centres undefined), -15.6%.
With `CCOc1cc(C2C(C(=O)OCCSCC)=C(C)NC3=C2C(=O)CC(c2ccc(Cl)cc2)C3)cc(Cl)c1O` (centres undefined), the displacement was -20.8%.
For `O=C(Nc1ccc(Cl)cn1)c1ccc(OCc2ccccc2)cc1`, the displacement is 3.7%.
As for `COc1ccc(Br)cc1C=C1C(=O)N(C)C(=O)N(C)C1=O`, the figure is 1.2%; as for `O=C1CC(c2ccccc2)CC(O)=C1C=Nc1ccc(Br)cc1` (centres undefined), -3.8%; as for `Cc1cc(C)cc(OCC(O)CNC(C)(C)C)c1` (centres undefined), 7.4%.
With `CN(C)c1ccc(/C=N/NC(=O)CNC(=O)c2ccc(F)cc2)cc1` the figure was 2.3%.
As for `CC(=O)N/C(=C\c1ccc(F)cc1)C(=O)NC(C(=O)O)C(C)C` (centres undefined), the figure is 81.8%.
`Cc1nn(CC(=O)O)c(=O)c2ccccc12`: the displacement is -3.8%.
With `O=C1CC(c2ccccc2)CC2=C1C(c1ccccc1Cl)Nc1ccccc1N2` (centres undefined) the figure was -7.2%; with `COc1ccc(CC(=O)NCc2ccc3c(c2)OCO3)cc1`, -3.7%; with `CCN(CC)c1ccc(Nc2nc(-c3sc(N)nc3C)cs2)cc1`, -13.5%.
In the case of `Cc1nc(SCC#N)c(C#N)c(C)c1C`, the displacement is -1.7%.
As to `O=C(N/N=C/c1cn(Cc2ccccc2)c2ccccc12)C1COc2ccccc2O1` (centres undefined), the displacement was -2.4%.
With `CCC1CCCCN1C(=O)c1cnn2c(C(F)(F)F)cc(-c3ccc(C)cc3)nc12` (centres undefined), the displacement stood at 44.8%.
With `Cc1ccc(C(=O)Nc2cccc(F)c2)cc1S(=O)(=O)N1CCOCC1` the figure was -14.9%; with `CC1(C)CC(NC(=O)COc2cccc3ccccc23)CC(C)(C)N1`, -4%.
As for `CN(C)c1ccc(/C=N/N=C2/NC(=O)C(c3ccccc3)(c3ccccc3)S2)cc1`, the figure is -4.8%.
As for `CCOc1ccc(C(=O)Nc2cc(C)ccn2)cc1[N+](=O)[O-]`, the figure is 1.6%; as for `CCOc1cccc(C(=O)Nc2nc(-c3ccc(C)cc3)cs2)c1`, -2.7%; as for `O=C(O)CCC(C(=O)O)N1C(=O)/C(=C\C(Cl)=C/c2ccc([N+](=O)[O-])cc2)SC1=S` (centres undefined), 32.9%.
As for `COc1ccc(Br)cc1/C=N\N1CCN(c2ccccc2OC)CC1`, the displacement worked out at 3.9%.
With `Cc1ccc(N2C(=O)C3CCCCC3C2=O)cc1Cl` (centres undefined) the figure was -11%; with `O=C(/C=C/c1ccccc1Cl)NCCN1CCOCC1`, 2.8%; with `Cc1c(Cc2ccccc2)sc(NC(=O)CCc2ccccc2)c1C(N)=O`, -9.6%.
As for `Cc1c(N=Cc2cc3c(cc2Cl)OCO3)c(=O)n(-c2ccccc2)n1C`, the figure is 5.2%.
With `Cc1ccc(NC(=O)C2CCCN2S(=O)(=O)c2ccc(C)cc2)cc1` (centres undefined) the figure was 13.4%.
In the case of `Cc1ccc(NCC(=O)N/N=C\c2c(Br)cc(Br)c(O)c2Br)cc1`, the displacement came out at 6.9%.
As for `CC(Oc1ccccc1)C(=O)Nc1cccc([N+](=O)[O-])c1` (centres undefined), the figure is 5.1%; as for `CCOC(=O)c1sc(NC(=O)COc2ccc(Cl)cc2C)c(C(=O)OCC)c1C`, -5.1%.
With `Cc1ccc2nc(/C(C#N)=C\c3ccc([N+](=O)[O-])o3)[nH]c2c1` the figure was -8.8%; with `COc1ccc(/C(O)=C/c2nc3ccccc3n(-c3ccccc3)c2=O)cc1`, -5.5%; with `CCOc1c(Br)cc(/C=C2/C(=O)N(c3ccccc3)N=C2C)cc1OC`, -0.6%.
For `C=C(C)C(=O)Oc1ccc(N2C(=O)CCC2=O)cc1`, the displacement was 5.8%.
With `NC(=O)NC(Cc1ccccc1)Cc1ccccc1` the figure was 0.2%; with `COc1ccc(OC)c(NC(=O)c2ccccc2N(Cc2ccccc2)S(=O)(=O)c2ccccc2)c1`, 1.9%.
As for `Cc1cc(C)cc(-n2c(C)cc(/C=N/NC(=O)c3cccnc3)c2C)c1`, the figure is 30.2%.
As for `CCn1c(-c2ccc(C(C)(C)C)cc2)n[nH]c1=S`, the figure is -17.4%.
For the molecule `O=C1c2ccccc2NC(c2ccc(-c3ccccc3[N+](=O)[O-])o2)N1c1ccccc1` (centres undefined), the displacement came out at 16.8%.
As for `O=C1C(C=NC2CC2)=C(O)c2ccccc21`, the figure is 23.8%; as for `C=CCN1C(=O)C(C)(C)N(C(C)=O)c2ccccc21`, -4.8%; as for `COc1cc(/C=C2\C(=O)N(c3cccc(C(=O)O)c3)N=C2C)cc(I)c1O`, -31.6%.
As to `CSc1ccc(CN2CCN(S(=O)(=O)c3ccc(C)cc3)CC2)cc1`, the displacement is 13.7%.
`CCOc1cc(/C=C2\SC(=Nc3ccc(C)c(Cl)c3)NC2=O)ccc1O`: the displacement is -2.8%.
As for `COc1ccc(/C=C2/SC(=S)NC2=O)cc1I`, the figure is -25.1%.
For the molecule `CC(=O)c1ccc(N(C(C)=O)C2=C(N3CCCCC3)C(=O)c3ccccc3C2=O)cc1`, the displacement amounted to 13.1%.
As for `O=C(CCC(=O)c1ccccc1)OCC(=O)c1ccc2c(c1)OCCO2`, the figure is -9.4%; as for `O=C(NCCCCc1ccccc1)c1sc2ccccc2c1Cl`, 15.7%.
As to `O=C1C2C(C(=O)N1Cc1cccnc1)C1C=CC2C12CC2` (centres undefined), the displacement was -10.3%.
As for `O=C(N/N=C\c1cc(I)cc(I)c1O)c1ccc([N+](=O)[O-])cc1`, the figure is 45.1%; as for `O=C1C=CC(=NS(=O)(=O)c2ccc(Cl)cc2)C=C1`, 2.1%; as for `COc1ccc(S(=O)(=O)Nc2cc([N+](=O)[O-])ccc2C)cc1`, 3.2%.
For `O=C1C(=O)N(c2ccccc2Br)C(=O)N1c1cccc(Cl)c1`, the displacement worked out at 5.7%.
With `Cn1c(O)c(C=NC(C)(CO)CO)c(=O)n(C)c1=S` the figure was -25.2%.
On to `O=C(NCc1cccs1)c1cnn2c(C(F)(F)F)cc(-c3ccco3)nc12`, for which the displacement is -8.7%.
Turning to `OCCNCCOc1cccc(Cl)c1Cl`, the displacement amounted to 2.8%.
As for `COc1ccc(N(CC(=O)Nc2ccccc2Br)S(=O)(=O)c2ccccc2)cc1Cl`, the figure is -1%; as for `CCOc1ccc(NC(=O)c2cc(-c3ccc(OC)cc3)nc3ccccc23)cc1`, 12.1%; as for `O=C1C2C3c4ccccc4C(c4ccccc43)C2C(=O)N1c1cc(C(F)(F)F)ccc1Cl` (centres undefined), -0.1%.
With `O=C1CSC(c2ccc(Cl)cc2)N1c1ccc(Cl)c(Cl)c1` (centres undefined) the figure was 18.2%.
`O=C(Nc1cccc(Cl)c1)c1cccc(NC(=O)c2ccco2)c1`: the displacement is 1.5%.
For the molecule `CC1CCN(C(=O)c2ccc(N(C)S(=O)(=O)c3ccccc3)cc2)CC1`, the displacement is -1.2%.
Turning to `CCN(CC)c1ccc(/C=N/NC(=O)CCc2c(C)n[nH]c2C)cc1`, the displacement is -4.5%.
With `CC1CCN(CCOCCOc2c(Cl)cc(Cl)cc2Cl)CC1` the figure was -7.5%.
With `Cc1ccc(CN2CCN(/N=C/c3ccc(C(=O)O)cc3)CC2)cc1` the figure was 16.4%.
`CC(=O)Nc1ccccc1NC(=O)c1ccccc1F`: the displacement is -14.1%.
As for `O=C(COc1ccc(Cl)cc1)N1CCN(C(=O)COc2ccc3ccccc3c2)CC1`, the figure is -9.7%; as for `O=C1NC(=S)SC1=C1CCCCC1`, 2.6%; as for `O=C(NCCc1ccccc1)c1cncc(Br)c1`, -3.2%.
As to `Cc1[nH]n(-c2ccccc2)c(=O)c1C(=O)C(F)(F)F`, the displacement stood at 12.1%.
As to `COCCNS(=O)(=O)c1ccccc1[N+](=O)[O-]`, the displacement is -7.8%.
With `CCC12CN3CC(CC)(CN(C1)C3c1ccccc1)C2=O` (centres undefined) the figure was 13.5%.
With `COc1ccc(-c2nnc(-c3ccc(Cl)cc3)o2)cc1OC` the figure was 30.9%; with `COc1cc([N+](=O)[O-])ccc1-c1ccc(/C=C2\C(=O)NC(=S)N(c3ccc(Cl)cc3)C2=O)o1`, 16.2%.
As for `O=C1CC(NCc2ccc3c(c2)OCO3)C(=O)N1c1ccc(Cl)cc1` (centres undefined), the figure is 5.2%; as for `O=C(O)c1cccc(-c2ccc(/C=C/c3cc(C(F)(F)F)[nH]c(=O)n3)o2)c1`, -10%.
Consider `O=S(=O)(c1ccc(Br)cc1Br)N1CCOCC1`, for which the displacement was -10.4%.
As for `O=C(O)CCC(=O)N1N=C(c2c(-c3ccccc3)c3cc(Cl)ccc3[nH]c2=O)CC1c1cccc([N+](=O)[O-])c1` (centres undefined), the figure is 10.3%; as for `O=c1[nH]c(=S)[nH]c(O)c1C=Nc1ccc(Cl)c(Cl)c1`, -7%.
As for `COc1cc(N)c(Cl)cc1NC(=O)c1ccc(Cl)cc1`, the figure is -6.6%.
With `Fc1ccc(-c2nnc(-c3ccc(Cl)cc3)o2)cc1` the figure was 5.8%; with `O=C(CN(c1cccc(Br)c1)S(=O)(=O)c1ccccc1)Nc1cccc2ccccc12`, 4%; with `CCCNC(=O)c1ccccc1C(=O)NCCC`, 15.4%.
Regarding `O=C(O)CCCNC(=O)/C(=C\c1ccc(Cl)cc1)NC(=O)c1ccccc1`, the displacement was -7.8%.
Turning to `CCOC(=O)N1CCN(C(=O)c2ccc(N(Cc3ccc(Cl)cc3)S(C)(=O)=O)cc2)CC1`, the displacement is -10%.
With `CCOC(=O)C1=NNC2C(=O)N(c3cc(OC)ccc3OC)C(=O)C12` (centres undefined) the figure was 3.1%.
With `O=C(N/N=C\c1ccc(F)cc1)C(Nc1cc([N+](=O)[O-])ccc1O)c1ccccc1` (centres undefined) the figure was -8.5%.
As for `COc1ccc(CCN2C(=O)CSC2c2ccc([N+](=O)[O-])cc2)cc1OC` (centres undefined), the figure is -4.5%.
In the case of `CC(/C=N\NC(=O)Cn1nnc2ccccc21)=C/c1ccc(C(C)C)cc1`, the displacement is -6.7%.
On to `O=C(COc1ccc2ccccc2c1)NCCc1ccccc1`, for which the displacement is -16.6%.

(Values after PubChem BioAssay AID1240 (Sanford-Burnham Center for Chemical Genomics, 2008).)
